The compounds below were run on HepG2 cells (assay: HepG2 cell viability under low oxygen (hypoxic) condition, trypan blue exclusion assay). Conditions: not given.
Assay type: cell-based, human
In the case of `CN[C@@H]1[C@@H](O)[C@@H](O[C@@H]2[C@@H](O)[C@H](O[C@H]3O[C@H]([C@@H](C)O)[C@@H](O)[C@H](O)[C@H]3N)[C@@H](N)C[C@H]2N)OC[C@]1(C)O` [geneticin], the “Geneticin concentration at which cells were viable for a certain period of time” value is reported as 10 to 100 µg/mL.

Same assay, conditions: 1% (v/v) oxygen; procedure of Examples 4-1 and 4-2
For `CC1(C)S[C@@H]2[C@H](NC(=O)[C@H](N)c3ccc(O)cc3)C(=O)N2[C@H]1C(=O)O` [amoxillin, amoxicillin], the “Enhancement effect on cell viability under hypoxic condition (in words)” value (“Enhancement effect on cell viability” for short) was “did not show enhancement effect on cell viability”. For `O=c1[nH]cc(F)c(=O)[nH]1` [5-fluorouracil], the “Enhancement effect on cell viability” value was “did not show any effect on cell viability”. In the case of `Nc1ccc(S(=O)(=O)Nc2ncccn2)cc1` [sulfadiazine], the “Enhancement effect on cell viability” value is reported as “did not show any effect on cell viability”. With `O=C(O)c1cn(C2CC2)c2cc(N3CCNCC3)c(F)cc2c1=O` [ciprofloxacin] the “Enhancement effect on cell viability” value was “effective”. `CC1(C)S[C@@H]2[C@H](NC(=O)[C@H](N)c3ccccc3)C(=O)N2[C@H]1C(=O)O` [ampicillin] was tested, and the “Enhancement effect on cell viability” value was “did not show enhancement effect on cell viability”. For `CC[C@H]1OC(=O)[C@H](C)[C@@H](O[C@H]2C[C@@](C)(OC)[C@@H](O)[C@H](C)O2)[C@H](C)[C@@H](O[C@@H]2O[C@H](C)C[C@H](N(C)C)[C@H]2O)[C@](C)(O)C[C@@H](C)C(=O)[C@H](C)[C@@H](O)[C@]1(C)O` [erythromycin], the “Enhancement effect on cell viability” value was “not effective”. With `COc1ccc(CN2CCNCC2)c(OC)c1OC` [trimetazidine] the “Enhancement effect on cell viability” value was “did not show any positive result”. With `O=C(N[C@H](CO)[C@H](O)c1ccc([N+](=O)[O-])cc1)C(Cl)Cl` [chloramphenicol] the “Enhancement effect on cell viability” value was “effective”. For gentamicin, the “Effective concentration exerting enhancement effects on HepG2 cell viability” value was 100 to 1000 µg/mL and the “Enhancement effect on cell viability” value was “effective”. `C[C@@H]1C[C@@H]([C@H](O)CC2CC(=O)NC(=O)C2)C(=O)[C@@H](C)C1` [cyclohexamide] was tested, and the “Enhancement effect on cell viability” value was “did not show any effect on cell viability”. `COc1ccc(C[C@H](N)C(=O)N[C@H]2[C@@H](O)[C@H](n3cnc4c(N(C)C)ncnc43)O[C@@H]2CO)cc1` [puromycin] was tested, and the “Enhancement effect on cell viability” value was “did not show any effect on cell viability”. For neomycin, the “Effective concentration exerting enhancement effects on HepG2 cell viability” value was 1000 µg/mL and the “Enhancement effect on cell viability” value was “effective”.
